Measurements from the supplement of paper PMC11417369.
± gives the standard deviation of the averaged measurements. Some of the results follow.

The sequences below were run on PfAP2-EXP AP2 domain (GST-tagged) (assay: gcPBM binding intensity (ln(normalized median fluorescence intensity)); higher = stronger DNA binding).
Summary of the method: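 The binding buffer was 1× PBS containing 1% milk, 0.2 mg/ml BSA, 0.5% salmon testes DNA and 0.03% Triton X-100. In it, GST-tagged P. falciparum DNA-binding domains expressed in E. coli were applied for 1 h to an Agilent 4 × 180k array of primer-extended double-stranded 36-bp intergenic genomic probes plus negative controls. Binding intensity, read with Alexa488 anti-GST antibody and a 488 nm scan, is the highest Masliner-normalised natural-log median intensity across replicate spots of either probe orientation.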

Sequence | gcPBM binding intensity (ln)
TAAAAGGAGACATATACACACATATATATATATATA [CACACA_site5539] | 10.1 ± 0.42
ATTCCTCATTAATATTCTTATTTTTTAATTCACATT [XGTACX_negctrl_site329] | 8.87 ± 0.35
TGTGATTATGATAAAAGTACAGAAATAAATATACTA [XGTACX_site38] | 8.46 ± 0.29
TTTTATAAAGAACACAGACACACAAAGAAAGAACCA [CACACA_site4174] | 9.02 ± 0.6
ATAAAAAGCTAAAAAGTGCAAAAAGTAAATATTTAA | 9 ± 0.44
ACCAATTTGACAAACTGTACAAAAAAAATATTAAAA [XGTACX_site1186] | 8.44 ± 0.5
TACACAAAAATAAACACACACACATATATATATATA [CACACA_site1000] | 10 ± 0.22
TATATATTCCTCCATAGTACAATAATAAAGATAAAA [XGTACX_site5785] | 8.52 ± 0.49
CTTTCCCTATATTGCTGTACATGTATTCAAAAAACA [XGTACX_site353] | 9.1 ± 0.42
CGCGAACATACATACACACACATATATATATCTGTA [CACACA_site4277] | 8.79 ± 0.47
AACATTAATTTCCTATGTACTTAATATATTGTTTTT [XGTACX_site4440] | 8.81 ± 0.4
AACACCCAAAAACACACACACATACATACATACATA [CACACA_site4411] | 8.7 ± 0.35
ATTTATATATATGTATGTACGTATGTGTGTATATGT [XGTACX_site7587] | 9.02 ± 0.33
ATTATAAATATATTTTGTACTTAAAAGGAAAAAAAA [XGTACX_site55] | 8.28 ± 0.4
ATTACATGTATACATGTCAACACGTATAAAAAAAAA [CACACA_negctrl_site1154] | 8.64 ± 0.49
TACACAAACAGACACACACACACACGCGCACAAAAA [CACACA_site7192] | 8.73 ± 0.54
AATAAGCATAGACACACACACAAAAAAAAAAAAAAA [CACACA_site6476] | 8.21 ± 0.49
AATAAATAGAGGAAATGTACATATAAAAATAATTTC [XGTACX_site2454] | 8.88 ± 0.35
GATTATCTTCAAGTATGTACACACTATATATAATAA [XGTACX_site5108] | 8.81 ± 0.26
TTAACATCTTCGTTGACACACAAAAAAAAAAATAAT [CACACA_site1819] | 8.35 ± 0.47
GCACGAAACAATGTATATATATATATATATATATAT [GTGCAC_negctrl_site412] | 10.1 ± 0.45
TTCTTTATGGAAGTGTAAAAAAAGAAATACTTTTTT [CACACA_negctrl_site915] | 8.03 ± 0.41

Sequence | gcPBM binding intensity (ln)
ATATAACAGAAACACACACACATATATATATATTAT [CACACA_site4140] | 8.9 ± 0.53
ATAAATGATAGTAAAAGTACACAAAATGTTTTAAAA [XGTACX_site1623] | 8.53 ± 0.45
TATTTTTATATATAATCACACATTGGAATGTTCTAA [CACACA_site5540] | 8.46 ± 0.37
TATATATATCTGTATACACACATATGTATGTTATGT [CACACA_site6090] | 8.7 ± 0.38
ATATTTTTTCTGAACGGTACAGAATTTTTCAAGATT [XGTACX_site484] | 8.57 ± 0.43
AAGAAAAGTAAATATGCATGTAGGGTAGGTTATTTT [TGCATGCA_site46] | 8.94 ± 0.23
CCTTTTTCTAATGGATGTACTTATTATATACATTAT [XGTACX_site281] | 8.55 ± 0.31
TTATTTTATCACACATGTACATATGTTAATTTTTTT [XGTACX_site5598] | 8.84 ± 0.33
AAATTTATATATAGTTGTACAAAAATATGTTTCGTA [XGTACX_site4801] | 8.51 ± 0.34
TGAATAATCAATAGTACACACATATAAATATATATA [CACACA_site2813] | 8.44 ± 0.22
AAAATAAAAAGAAATAAATTAACAGTAAGGAAAAAA [CACACA_negctrl_site1105] | 8.81 ± 0.43
ATGCGTTCATACATACATACATACATACAATTTGTA [TGCATGCA_negctrl_site50] | 8.74 ± 0.4
GAACAAATTACAAGTTGTACTTTATGTAAATTATTA [XGTACX_site5304] | 8.26 ± 0.28
TTTTTATAACAAAGTATTTAAATAATTTATACTAAT [TGCATGCA_negctrl_site104] | 8.05 ± 0.39
AACATTTATATTTAAGTGCAGATGCTGTAATTTAGA | 8.49 ± 0.36
TGCTCATGAGGTCAGAGTACAAAATAGTAAATGTAT [XGTACX_site2973] | 8.71 ± 0.42
TAATTCATCCTATGCACACACAATACCAAAATGTGC [CACACA_site4269] | 8.57 ± 0.44
TAATTTATTAATAATTGTACAGATATTATACTTAAA [XGTACX_site8947] | 8.15 ± 0.28
TTTTGAATTAAACAAGCATGCTTTATTTACTTCTTA [TGCATGCA_site289] | 8.54 ± 0.47
TTTTTTTTTTTTTTTCTTTTTTATTCTCACAAAAAA [CACACA_negctrl_site1790] | 8.23 ± 0.38
TTTATTTTTATTTTTGTGCACGGGATTAAATAAAAG [GTGCAC_site9842] | 9.53 ± 1
AAAAAAAAAAAAAATAATAAATAAATAAATAAATAA [GTGCAC_negctrl_site505] | 8.76 ± 0.099

Sequence | gcPBM binding intensity (ln)
CGTAGCCGCACTAACACACACAAATATACGCAATCA [CACACA_site2898] | 8.71 ± 0.32
AAAAATAAAAAAAAATTAAAATATATATATTTTGTT [TGCATGCA_negctrl_site102] | 8.52 ± 0.28
AGGAAAAAAAGTAGCACACAAATATTTATAATATAT [CACACA_site2437] | 8.64 ± 0.52
AACATATTTATATACACACACATATTTATATGAAAT [CACACA_site6268] | 8.39 ± 0.33
GAGAGGATACATACATGTACATAAATATTTTATTTT [XGTACX_site5129] | 8.54 ± 0.28
TTACTATTTCACTGTGCATGCAACAAAAATCTATCT [TGCATGCA_site808] | 10.2 ± 0.31
ATTAGTTTATATGAATGATTTTTCTTTTTTTTTTTT [CACACA_negctrl_site88] | 8.19 ± 0.49
ATATTTTGGGTGTTGTTTTTTTTTAAAACTCTTTAA [CACACA_negctrl_site1255] | 8.92 ± 0.34
GATTTATATTTTAAAAGTACAAGTTAAAATAAAAGT [XGTACX_site7059] | 8.74 ± 0.33
TTTGATTTTAATGTGTGTACACATTTATTTATATAA [XGTACX_site4806] | 8.56 ± 0.34
ATATAATATCTGTATACACACATATTATATAATATT [CACACA_site5940] | 8.62 ± 0.4
ATATAAGTATAATTATGTACTTATACTTATATAAAT [XGTACX_site5585] | 8.29 ± 0.37
AATATAAGATTATTATGTACATAATAAATATGTATT [XGTACX_site4773] | 8.46 ± 0.36
ATAATTATATGATGAGTGCACAATAAAAATATCGTT [GTGCAC_site9920] | 9.01 ± 0.014
GGTCATCATCGGTATTGTACAAAAATGTGAAAATTA [XGTACX_site639] | 8.87 ± 0.37
CATATTAATACAGAATGTACGGATAACAAACTGTTT [XGTACX_site7935] | 8.38 ± 0.22
TTTTTTTTTTTGGTTACACACATTTGTATATTCTCA [CACACA_site134] | 8.69 ± 0.49
CCATAACTCCTATGCACACATAAATATTACAGAGAT [CACACA_site5984] | 8.61 ± 0.37
TTTTATTTAGGAGGTGCATGTAATACGGAACATAAT [TGCATGCA_site827] | 9.275 ± 0.035
CATATAATAAATAATACACACATATTGGAAATATAT [CACACA_site3212] | 8.57 ± 0.23
AAAGGTATATATGTGTGTACATATATATATATATAT [XGTACX_site5629] | 10 ± 0.4
TTTATTTATTTATATTTTTTTATATAATTTATATAT [GTGCAC_negctrl_site301] | 8.31 ± 0.29

Sequence | gcPBM binding intensity (ln)
TTTTGAGAAAAAATAAAATAATAAATAAAAATACAT [XGTACX_negctrl_site66] | 8.7 ± 0.33
AATACAATTGAAAATTGTACTTTGTTTTTTATAAAT [XGTACX_site4080] | 8.17 ± 0.27
CACATTTCTGTAGTTGCATGTAGAAAAAAAAAAAAA [TGCATGCA_site810] | 8.72 ± 0.2
TTTTTTTTTTTTGTAACATGCAAACAACAATATGGG [TGCATGCA_site695] | 8.76 ± 0.45
TATGTTCCGAAGGTTGTACACACATAGAAATATACA [CACACA_site9285] | 8.81 ± 0.43
GGGAGGATATTACACAGTACCCAGGAAATCTACGGA [XGTACX_site4874] | 8.78 ± 0.4
ATGTAATTGTATACATGTACGCAAACACAAAAGCAT [XGTACX_site6771] | 9.14 ± 0.3
AAGGAAAAAACAAATACACACAAAAACGCATTATAA [CACACA_site3466] | 8.96 ± 0.48
ATGAACTTATTTTAGTGTACTAAAAAATATGACTTC [XGTACX_site470] | 8.41 ± 0.19
TTTTGTTCATACAAATTGGAACAAGACAAAAATATA [XGTACX_negctrl_site327] | 8.56 ± 0.38
TACATAATTTTAATCACACACAAACAAACACATACA [CACACA_site194] | 8.85 ± 0.45
GTAAGTATATATAATAGTACATATATATTAATATAT [XGTACX_site4314] | 8.46 ± 0.35
TATCATTTTGAAGTATGTACTTATTTTATTAAAATA [XGTACX_site7784] | 8.51 ± 0.27
TAAATACATAAATACACACACATATATATATATATA [CACACA_site5549] | 10.2 ± 0.35
ATTATATTAAAATATTCACACACTAACGTAAATCAT [CACACA_site8887] | 8.19 ± 0.42
TAGGTCATATTTTTTGCACACAAAAAAAAATATAAA [CACACA_site3380] | 8.52 ± 0.11
CACCTCAATATTCACATACACACAATATCATCGAAG [CACACA_site1675] | 8.7 ± 0.49
TTTTTCCAATCAGATGCATGTTACTATATTTGGTTC [TGCATGCA_site52] | 8.79 ± 0.38
TGTATAAGGTTTTTACGTTTTGAAGGATGTATTGTT [CACACA_negctrl_site1245] | 8.59 ± 0.6
TTTATTATCAAGATTGCACACCCTTATGAACTTTTT [CACACA_site3166] | 8.91 ± 0.43
TAATTTACACCTACGTGTACACACAAAAATATGTTT [XGTACX_site1868] | 8.7 ± 0.3
ACAAAAAAAAAGGAAACACACAAAAAAAAAAAATAA [CACACA_site3523] | 8.44 ± 0.59
